From PubChem BioAssay AID1745853 (National Center for Advancing Translational Sciences (NCATS), 2022)
Some of the results follow. The main result of the screen is listed elsewhere. These columns were measured beside it and carry no call.

Key:
Assay in all cases: Primary Screen for Target Class Profiling of Small Molecule Inhibitors of Methyltransferases
[1] = target: Glycine N-methyltransferase (Homo sapiens) (UniProt Q14749); details: purified enzyme, MTase-Glo SAH luminescence; measured here: GNMT inhibition; at 40 µM; stronger effect = lower value
How it was run: (§1)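 Each enzyme was assayed with SAM and its substrate. SAH formation detected by MTase-Glo luminescence; single-point 40 uM screen[…].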

[2] = target: Guanidinoacetate N-methyltransferase (Homo sapiens) (UniProt Q14353); details: purified enzyme, MTase-Glo SAH luminescence; measured here: GAMT inhibition; at 40 µM; stronger effect = lower value
How it was run: as §1

[3] = target: Histamine N-methyltransferase (Homo sapiens) (UniProt P50135); details: purified enzyme, MTase-Glo SAH luminescence; measured here: HNMT inhibition; at 40 µM; stronger effect = lower value
How it was run: as §1

[4] = target: Nicotinamide N-methyltransferase (Homo sapiens) (UniProt P40261); details: purified enzyme, MTase-Glo SAH luminescence; measured here: NNMT inhibition; at 40 µM; stronger effect = lower value
How it was run: as §1

[5] = target: Phenylethanolamine N-methyltransferase (Homo sapiens) (UniProt P11086); details: purified enzyme, MTase-Glo SAH luminescence; measured here: PNMT inhibition; at 40 µM; stronger effect = lower value
How it was run: as §1
% is scaled to controls: 0 for no effect and ±100 for the full control effect.

SMILES | activity change, negative = inhibition [1] [%] | activity change, negative = inhibition [2] [%] | activity change, negative = inhibition [3] [%] | activity change, negative = inhibition [4] [%] | activity change, negative = inhibition [5] [%]
COC(=O)C1=COC(OC2OC(CO)C(O)C(O)C2O)C2C(COC(=O)/C=C/c3ccc(O)c(O)c3)C(O)C(O)C12 (stereo not given) | -0.368 | 4.28 | 5.56 | -9.37 | 3.9
COc1ccc(-c2cc3n(n2)CC(C)(C(=O)NCc2ccccc2)N(c2ccccc2C)C3=O)cc1 (stereo not given) | 3.3 | 0 | 5.04 | 6.16 | -2.02
c1ccc(-c2noc(-c3cncnc3NC3CCCCC3)n2)cc1 | 0.645 | -0.776 | 1.97 | -2.06 | 0.765
c1ccc(N2CCC(Cn3ccnc3-c3cc4n(n3)CCCNC4)C2)cc1 (stereo not given) | -25.5 | -15.6 | -46.1 | -23.6 | -23.5
O=C(COc1ccccc1)NCCn1cccc1-c1nc(-c2ccc3c(c2)OCO3)no1 | -4.91 | -6.16 | -4.7 | -12 | -3.77
O=C(NC1CCN(c2cc(-c3ccc(Cl)cc3)[nH]n2)C1)c1c[nH]c2ccccc12 (stereo not given) | -24.8 | -12.1 | -8.51 | -16 | -10.9
C=C1[C@H]2CCC3[C@]4(C)CCC[C@@](C)(C(=O)O)C4CC[C@]3(C2)[C@H]1OC(C)=O (stereo not given in full) | 0.033 | 2.63 | 2.06 | -16.2 | -2.15
CC(C)(CC(=O)O)CC(=O)N1Cc2[nH]cnc2C[C@H]1C(=O)NC1CCCCC1 | -3.18 | -2.48 | -0.208 | -4.62 | -3.24
O=C1c2ccc(Nc3ccc(F)cc3F)cc2CCc2ccc(OCC(O)CO)cc21 (stereo not given) | -20.8 | -0.034 | -4.85 | -12 | 0.334
COc1cc(F)c(-c2nccn2CC(O)c2ccccc2)cc1OC (stereo not given) | -1.67 | -1.46 | -22.5 | -10.2 | -4.37
COc1ccc(OC)c(CNC(=O)c2cc3n(n2)CC(C)(C(=O)NC2CCCCCC2)N(C)C3=O)c1 (stereo not given) | -2.9 | 4.18 | 1.17 | -0.997 | 1.56
CC1CCN(S(=O)(=O)c2ccc3c(ccn3CCC(=O)NC3CCCC(C)C3C)c2)CC1 (stereo not given) | -3.84 | 1.04 | -7.22 | -11.3 | -5.77
O=C(Nc1ncc([N+](=O)[O-])s1)c1ccccc1O | -15.2 | -7.22 | -4.82 | -15.1 | -4.45
CCCc1cc2c(-c3ccccc3)cc(=O)oc2cc1OCc1ccc(C(=O)OC)o1 | -5.69 | 5.72 | 1.27 | -1.58 | -2.84
O=C1NC2(CCN(Cc3ccccc3C(F)(F)F)C2)COc2ccccc21 (stereo not given) | -5.29 | -3.23 | -2.72 | -9.95 | -4.69
Cc1cc(C)cc(-c2ccc(CN3CCCC(N[S+](=O)([O-])c4cccs4)C3)cc2)c1 (stereo not given) | -0.584 | -0.409 | 0.2 | 0.85 | 0.847
CCOC(=O)c1ccc(OCCC2CCN(c3ccc(C)nn3)CC2)cc1 | -11 | 6.44 | 7.79 | -30 | -6.91
OC[C@H]1O[C@@H](Oc2ccccc2)[C@H](O)[C@@H](O)[C@@H]1O | 4.42 | 6.69 | 11.6 | -5.41 | 6.69
Cn1ncc(Cl)c1-c1cc(C(=O)N[C@H](CN)Cc2ccc(F)c(F)c2)oc1Cl | 0.132 | – | 4.07 | – | –
CN1C(=O)c2cc(C(=O)N3CCN(c4ccccc4)CC3)nn2CC1(C)C(=O)NC1CCCCCC1 (stereo not given) | -3.48 | 0 | -0.642 | -1.9 | -3
Cc1ccc(CCNC(=O)c2cc3n(n2)CC(C)(C(=O)NCc2ccccc2)N(C)C3=O)cc1 (stereo not given) | 1.33 | 1.03 | -7.58 | 1.54 | -2.29
O=C(CCc1nnc2n(Cc3ccc(F)cc3)c(=O)c3ccccc3n12)NC1CCCCC1 | -3.3 | 0.224 | 9.69 | 8.74 | 2.88
CCCCN1C(=O)c2cc(C(=O)NC3CCCCC3)nn2CC1(C)C(=O)NC1CCCC1 (stereo not given) | -0.103 | 5.22 | -2.59 | -0.964 | -0.614
O=C(C1CCCN1C(=O)c1ccccc1Cl)N1CCC(c2nc3ccncc3[nH]2)CC1 (stereo not given) | -6.36 | -5.32 | -9.73 | -10.4 | 0.255
O=C(c1ccc(N2CCC(O)CC2)nc1)N1CCC(N2CCOCC2)CC1 | -2.9 | -9.52 | -2.53 | -9.26 | -5.5
CN(C)Cc1nnc(C2CC(NC(=O)CC3Cc4ccccc4C3)C2)n1C (stereo not given) | -4.97 | -5.33 | -2.15 | -9.34 | -6.67
COc1cccc(C(O)c2nc(C(=O)N3CCN(c4ccccn4)CC3)c(C)o2)c1 (stereo not given) | -4.38 | -3.8 | -3.48 | -5.56 | -0.089
Fc1ccc(-c2nc3n(c2-c2ccncc2)CCS3)cc1 | – | 6.22 | – | -16 | 3.6
CCOC(=O)c1cc2n(n1)CC(C)(C(=O)NCc1ccccc1)N(Cc1ccccc1Cl)C2=O (stereo not given) | 4.19 | 0 | 5.06 | 1.24 | 0.402
C=C1C(=O)O[C@@H]2/C=C(\CO)CC/C=C(/C=O)C[C@H](O)[C@@H]12 | 1.07 | -0.441 | 13 | -9.15 | 2.66
